Laboratory results reported in PubChem BioAssay AID1487 (National Center for Advancing Translational Sciences (NCATS), 2009).
Hit rate of the full screen: of about 200,000 compounds, about 25 (0.01%) were called active. Inconclusive results (about 23%) are left out. Calls follow the shape of the dose curve; as a rule, active = well fitted inhibition curve with a large enough effect in the signal ratio, with a control signal flat (not every such curve was filed as active); inconclusive = small, poorly fitted or top-dose-only effect, or effect the other way, or a change in a side signal; inactive = flat fitted curve, though single readings scatter; the % refers to the signal ratio. Only a part is listed here, and it is no random draw.

Assay: qHTS Assay for Modulators of Lamin A Splicing
Conditions: HeLa LMNA splicing GFP/RFP minigene ratio, 48 h; series mostly up to 46.1 µM; ratio change, negative = inhibition: at the top concentration
Source text: NCGC Assay Overview: Hutchinson-Gilford Progeria Syndrome (HGPS) is a pediatric premature aging disease caused by a spontaneous mutation in the lamin A/C (LMNA) gene. The mutation activates a cryptic splice site in the LMNA pre-mRNA which results in production of a pre-lamin A protein that cannot be processed properly. The mutant protein accumulates in the nucleus and negatively affects numerous cellular functions. Correction of the splicing defect in HGPS patient cells using a targeted oligonucleotide (exo11) leads to reversal of the cellular disease phenotypes. To identify small molecule modulators of aberrant LMNA splicing, a homogenous assay was constructed in HeLa cells that used a GFP containing minigene to report on correction of aberrant splicing in lamin A and a RFP (DsRed2) to report on cell viability, uniformity and nonspecific effects on the assay signal. This assay was adapted to laser-scanning microplate cytometry (Acumen, TTP Labtech) where miniaturization of the assay to a 1,536-well plate format was possible. References: Bowen, W. P.; Wylie, P. G. Application of Laser-Scanning Fluorescence Microplate Cytometry in High Content Screening. Assay Drug Dev Technol 2006;4:209-221. Scaffidi P, Misteli T. Reversal of the cellular phenotype in the premature aging disease Hutchinson-Gilford progeria syndrome. Nat.
NCGC Assay Protocol Summary: Reagents/Controls: Stable clones expressing DsRed2 and lamin A-EGFP were generated by Cell and Molecular Technologies in S3 HeLa cells. HeLa cells were prepared for the assay when they were 70-90% confluent. The cells were counted and resuspended in Opti-MEM I (no phenol red; Gibco), 2% FBS, 1% penicillin/ streptomycin (Gibco) at concentration of 120 cells/uL concentration. The suspension was passed through a Falcon basket filter with pore size 40um (Beckton Dickson). Control titrations: column […] 1536-well plate contained a sixteen point titration (1:2 dilutions) in duplicate of ancitabine (Sigma: A8598) beginning at 40 uM final concentration. Column 2 contained a sixteen point titration (1:2 dilutions) of cycloheximide beginning at 1.4 mM final concentration. Column 3 contained ancitabine at 40 uM and column 4 contained was the vehicle control (0.5% DMSO final concentration). Assay Steps: 5 uL of HeLa cells were plated in Aurora LoBase black clear bottom (cyclic-olefin polymer) 1536-well plates at a final density of 600 cells/well. Controls and library compounds were added with a 1536-well pin array using the Kalypsys pin-tool. The plates were then incubated for 48 hrs in a cell-culture incubator (37 °C; 5% CO2, 98% humidity). Following incubation the plates were read on the Acumen Explorer using the 488 nm laser. Data was collected on objects between 10 and 100 um in size. Cell objects were defined by a 15 um width x 10 um depth filter. The ratio of the total object intensity in PMT1 (500-530 nm emission; GFP) over PMT3 (575-640 nm emission; RFP) was calculated for analysis. Keywords: NIH Roadmap, MLSCN, MLI, MLSMR, qHTS, NCGC, lamin A, Progeria, RNA splicing.
% is scaled to controls: 0 for no effect and ±100 for the full control effect; potency is read from the fitted curve at half-maximal effect.

Row | Structure (SMILES) | ratio change, negative = inhibition | Potency
1 | N[C@@H](Cc1c[nH]c2ccccc12)C(=O)O | inactive: -5.06% | –
2 | NS(=O)(=O)c1cc2c(cc1C(F)(F)F)NCNS2(=O)=O | inactive: 2.96% | –
3 | O=C(O)CCCCCN1C(=O)/C(=C/c2ccncc2)SC1=S | inactive: -17.9% | –
4 | Cc1noc(C)c1-c1ccc2ncnc(N3CCOCC3)c2c1 | – | active: 10 µM
5 | CCOC(=O)C1CCCN(S(=O)(=O)c2ccc(F)c(C(=O)Nc3ccc(F)c(F)c3)c2)C1 (stereo not given) | inactive: -19.4% [at 46 µM] | –
6 | CC(=O)c1cc2c(cc1N/C(=N/S(=O)(=O)c1ccc(C)cc1)c1ccccc1)OCO2 | inactive: -0.0955% | –
7 | NS(=O)(=O)c1cc2c(cc1Cl)NC(C1CC3C=CC1C3)NS2(=O)=O (stereo not given) | inactive: -17.9% | –
8 | CCN(CC)CC(=O)Nc1c(C)cccc1C | – | inactive
9 | c1ccc2c(CC3=NCCN3)cccc2c1 | inactive: 1.63% | –
10 | Cc1cn([C@H]2C=C[C@@H](CO)O2)c(=O)[nH]c1=O | inactive: -10.3% | –
11 | C[C@H](CO)NC(=O)[C@H](C)[C@H]1C[C@]1(C)[C@H](NC(=O)OCc1ccccc1)c1ccccc1 | inactive: -2.32% | –
12 | COC(=O)C1C(O)CC[C@@H]2CN3CCc4c([nH]c5ccccc45)C3C[C@@H]12 (stereo not given in full) | inactive: -2.86% | –
13 | Cn1cnc([N+](=O)[O-])c1Sc1ncnc2nc[nH]c12 | inactive: -22.6% | –
14 | O=c1[nH]c2ccccc2n1CCCN1CCN(C(c2ccccc2)c2ccccc2)CC1 | inactive: -26.6% | –
15 | OCCN(CCO)c1nc(N2CCCCC2)c2nc(N(CCO)CCO)nc(N3CCCCC3)c2n1 | inactive: 0.0992% | –
16 | COCCN1C(=O)N[C@@H](c2cccc(C(F)(F)F)c2)[C@H](C(=O)OC)[C@H]1C | inactive: -9.9% [at 9.22 µM] | –
17 | COc1ccc(C(=O)COC(=O)CCN2C(=O)C3C4CC(C(Br)C4Br)C3C2=O)cc1 (stereo not given) | inactive: 2.06% | –
18 | NS(=O)(=O)c1ccc(NC(=O)CSc2ccc3ccccc3n2)cc1 | inactive: -5.25% | –
19 | N[C@@H](Cc1cc(I)c(Oc2ccc(O)c(I)c2)c(I)c1)C(=O)O | inactive: -2.04% | –
20 | NC(=O)CC[C@H](N)C(=O)O | – | inactive
21 | C[C@@H](CCc1ccc(O)cc1)NCCc1ccc(O)c(O)c1 | inactive: -13% | –
22 | CC(C)OC(=O)C(C)(C)Oc1ccc(C(=O)c2ccc(Cl)cc2)cc1 | inactive: 6.48% | –
23 | CCOc1ccc2nc(S(N)(=O)=O)sc2c1 | inactive: -4.24% | –
24 | CCOc1ccc(C(=O)OCCN(CC)CC)cc1 | inactive: 10.6% | –
25 | COc1ccc2cc([C@H](C)C(=O)O)ccc2c1 | – | inactive
26 | CC1(C)S[C@@H]2[C@H](NC(=O)[C@H](N)c3ccccc3)C(=O)N2[C@H]1C(=O)O | – | inactive
27 | O=c1n(CCCN2CCN(c3cccc(Cl)c3)CC2)nc2ccccn12 | – | inactive
28 | CCC(NC(C)C)C(O)c1ccc(O)c2[nH]c(=O)ccc12 (stereo not given) | inactive: -7.79% | –

Row | Structure (SMILES) | ratio change, negative = inhibition | Potency
29 | CCCn1c(=O)c2[nH]c(C3CCCC3)nc2n(CCC)c1=O | – | inactive
30 | CCCN(CCC)CCc1cccc2c1CC(=O)N2 | inactive: -16.4% | –
31 | NC1CONC1=O (stereo not given) | inactive: -23.2% | –
32 | O=C(Nc1cccc(Oc2c(F)c(F)c(F)c(F)c2F)c1)N1C[C@@H]2C[C@@H](C1)c1cccc(=O)n1C2 | inactive: 13.9% | –
33 | CNCCCC12CCC(c3ccccc31)c1ccccc12 | inactive: -4.54% [at 46 µM] | –
34 | C[C@]12C=CC(=O)C=C1CC[C@H]1[C@@H]3C[C@@H](O)[C@](O)(C(=O)CO)[C@@]3(C)C[C@H](O)[C@@]12F | inactive: 8.2% | –
35 | COC(=O)[C@H]1C[C@@H]1[C@H](NS(=O)(=O)c1ccccc1)c1ccccc1 | inactive: 5.81% | –
36 | CCC[C@@H]1O[C@@H]2C[C@@H]3[C@H]4CCC5=CC(=O)C=C[C@@]5(C)[C@H]4[C@H](O)C[C@@]3(C)[C@@]2(C(=O)CO)O1 | inactive: 10% | –
37 | CC(=O)CCCCn1c(=O)c2c(ncn2C)n(C)c1=O | – | inactive
38 | NCCNCCNCCN | inactive: -3.16% | –
39 | CCN1/C(=C\c2ccc3cc(C)ccc3[n+]2CC)Sc2cc(C)c(C)cc21 | inactive: -14.6% [at 46 µM] | –
40 | Cc1noc(C)c1-c1ccc2ncnc(NCCN3CCOCC3)c2c1 | – | active: 10 µM
41 | COc1cc2nc(N3CCN(C(=O)[C@@H]4CCCO4)CC3)nc(N)c2cc1OC | inactive: -4.32% | –
42 | C[C@]12C[C@H](O)[C@H]3[C@@H](CCC4=CC(=O)CC[C@@]43C)[C@@H]1CC[C@@H]2C(=O)CO | inactive: -5.33% | –
43 | CN1C(=O)CCC1c1cccnc1 (stereo not given) | inactive: -16.6% | –
44 | Nc1c2c(nc3ccccc13)CCCC2 | inactive: -12.2% | –
45 | Cc1ccc(-n2c(O)c(/C=N/n3cnnc3)c3ccccc3c2=O)cc1 | inactive: -12.3% | –
46 | CC1(C)S[C@@H]2[C@H](NC(=O)C(C(=O)O)c3ccccc3)C(=O)N2[C@H]1C(=O)O (stereo not given in full) | inactive: -1.01% | –
47 | C[C@@H](CN1c2ccccc2Sc2ccccc21)N(C)C | inactive: -15.2% | –
48 | CC(C(=O)O)c1cccc(C(=O)c2ccccc2)c1 (stereo not given) | – | inactive
49 | Cc1occc(=O)c1O | inactive: 2.22% | –
50 | CCOc1cc(CC(=O)N[C@@H](CC(C)C)c2ccccc2N2CCCCC2)ccc1C(=O)O | inactive: 23.4% [at 46 µM] | –
51 | COc1ccc(C(=O)c2ccccc2)c(O)c1 | inactive: 21.4% | –
52 | CC(=O)OCC(=O)[C@@]1(O)[C@H](C)C[C@H]2[C@@H]3CCC4=CC(=O)C=C[C@]4(C)[C@@]3(F)[C@@H](O)C[C@@]21C | inactive: -2.89% | –
53 | CC(C)NCC(O)c1ccc(O)c(O)c1 (stereo not given) | – | inactive
54 | CC1=C(CC(=O)O)c2cc(F)ccc2/C1=C\c1ccc(S(C)=O)cc1 (stereo not given) | inactive: -12.9% | –
55 | Cc1onc(-c2ccccc2)c1-c1ccc(S(N)(=O)=O)cc1 | inactive: 5.76% [at 46 µM] | –
